# Results taken from publication PMC9911399, “Two distinct binding modes provide the RNA-binding protein RbFox with extraordinary sequence specificity”.
# Residue numbers refer to the chain shown, from its start. The list shows a part of the results.
# T1: RBFOX1 RRM (Homo sapiens, UniProt Q9NWB1 109-208)
# T1 sequence: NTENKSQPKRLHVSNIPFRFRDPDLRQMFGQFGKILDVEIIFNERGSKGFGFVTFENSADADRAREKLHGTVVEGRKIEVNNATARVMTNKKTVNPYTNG
# B1: CAGUCUG (DNA:RNA)
# RNA: GGGAGACCGGAAUUCAGAUUGUCCCAGUCUGUUAAAUCCCGUCGUAGCCACCA
# DNA 1: CAATCTGAATTCCGGTCTCCC
# DNA 2: TGGTGGCTACGACGGGATT
# B2: AGGCUAA (DNA:RNA)
# RNA: B1 RNA with C25A, A26G, U28C, C29U, U30A, G31A
# DNA 1: CAATCTGAATTCCGGTCTCCC
# DNA 2: TGGTGGCTACGACGGGATT
# B3: AUCUCCU (DNA:RNA)
# RNA: B1 RNA with C25A, A26U, G27C, U30C, G31U
# DNA 1: CAATCTGAATTCCGGTCTCCC
# DNA 2: TGGTGGCTACGACGGGATT
# B4: GGAGACU (DNA:RNA)
# RNA: GGGAGACCGGAAUUCAGAUUGUCCGGAGACUUUAAAUCCCGUCGUAGCCACCA
# DNA 1: CAATCTGAATTCCGGTCTCCC
# DNA 2: TGGTGGCTACGACGGGATT
# B5: UAGCUGA (DNA:RNA)
# RNA: B1 RNA with C25U, U28C, C29U, U30G, G31A
# DNA 1: CAATCTGAATTCCGGTCTCCC
# DNA 2: TGGTGGCTACGACGGGATT
# B6: GAGUUUU (DNA:RNA)
# RNA: B1 RNA with C25G, C29U, G31U
# DNA 1: CAATCTGAATTCCGGTCTCCC
# DNA 2: TGGTGGCTACGACGGGATT
# B7: AUCGAAG (DNA:RNA)
# RNA: B4 RNA with G25A, G26U, A27C, C30A, U31G
# DNA 1: CAATCTGAATTCCGGTCTCCC
# DNA 2: TGGTGGCTACGACGGGATT
# B8: CGUUCGG (DNA:RNA)
# RNA: B1 RNA with A26G, G27U, U30G
# DNA 1: CAATCTGAATTCCGGTCTCCC
# DNA 2: TGGTGGCTACGACGGGATT
# B9: GUAUUUU (DNA:RNA)
# RNA: B4 RNA with G26U, G28U, A29U, C30U
# DNA 1: CAATCTGAATTCCGGTCTCCC
# DNA 2: TGGTGGCTACGACGGGATT
# B10: UUAUACA (DNA:RNA)
# RNA: B4 RNA with G25U, G26U, G28U, U31A
# DNA 1: CAATCTGAATTCCGGTCTCCC
# DNA 2: TGGTGGCTACGACGGGATT
# B11: CCAGUUU (DNA:RNA)
# RNA: B4 RNA with G25C, G26C, A29U, C30U
# DNA 1: CAATCTGAATTCCGGTCTCCC
# DNA 2: TGGTGGCTACGACGGGATT
# B12: AAAGCAA (DNA:RNA)
# RNA: B1 RNA with C25A, G27A, U28G, U30A, G31A
# DNA 1: CAATCTGAATTCCGGTCTCCC
# DNA 2: TGGTGGCTACGACGGGATT
# B13: UAAAGAG (DNA:RNA)
# RNA: B1 RNA with C25U, G27A, U28A, C29G, U30A
# DNA 1: CAATCTGAATTCCGGTCTCCC
# DNA 2: TGGTGGCTACGACGGGATT
# B14: GUGGGAU (DNA:RNA)
# RNA: B4 RNA with G26U, A27G, A29G, C30A
# DNA 1: CAATCTGAATTCCGGTCTCCC
# DNA 2: TGGTGGCTACGACGGGATT
# B15: UCUUUUC (DNA:RNA)
# RNA: B1 RNA with C25U, A26C, G27U, C29U, G31C
# DNA 1: CAATCTGAATTCCGGTCTCCC
# DNA 2: TGGTGGCTACGACGGGATT
# B16: UACUUGC (DNA:RNA)
# RNA: B1 RNA with C25U, G27C, C29U, U30G, G31C
# DNA 1: CAATCTGAATTCCGGTCTCCC
# DNA 2: TGGTGGCTACGACGGGATT
# B17: GUGGGGC (DNA:RNA)
# RNA: B4 RNA with G26U, A27G, A29G, C30G, U31C
# DNA 1: CAATCTGAATTCCGGTCTCCC
# DNA 2: TGGTGGCTACGACGGGATT
# B18: CUGUCCA (DNA:RNA)
# RNA: B1 RNA with A26U, U30C, G31A
# DNA 1: CAATCTGAATTCCGGTCTCCC
# DNA 2: TGGTGGCTACGACGGGATT
# B19: UGCAGUA (DNA:RNA)
# RNA: B1 RNA with C25U, A26G, G27C, U28A, C29G, G31A
# DNA 1: CAATCTGAATTCCGGTCTCCC
# DNA 2: TGGTGGCTACGACGGGATT
# B20: CAUUUGC (DNA:RNA)
# RNA: B1 RNA with G27U, C29U, U30G, G31C
# DNA 1: CAATCTGAATTCCGGTCTCCC
# DNA 2: TGGTGGCTACGACGGGATT
# B21: CGAAGCC (DNA:RNA)
# RNA: B4 RNA with G25C, G28A, A29G, U31C
# DNA 1: CAATCTGAATTCCGGTCTCCC
# DNA 2: TGGTGGCTACGACGGGATT
# B22: UAUCCUC (DNA:RNA)
# RNA: B1 RNA with C25U, G27U, U28C, G31C
# DNA 1: CAATCTGAATTCCGGTCTCCC
# DNA 2: TGGTGGCTACGACGGGATT
# B23: CCUUCGG (DNA:RNA)
# RNA: B1 RNA with A26C, G27U, U30G
# DNA 1: CAATCTGAATTCCGGTCTCCC
# DNA 2: TGGTGGCTACGACGGGATT
# B24: CCAUGUC (DNA:RNA)
# RNA: B1 RNA with A26C, G27A, C29G, G31C
# DNA 1: CAATCTGAATTCCGGTCTCCC
# DNA 2: TGGTGGCTACGACGGGATT
# B25: GUGGGAA (DNA:RNA)
# RNA: B4 RNA with G26U, A27G, A29G, C30A, U31A
# DNA 1: CAATCTGAATTCCGGTCTCCC
# DNA 2: TGGTGGCTACGACGGGATT
# B26: GGACCCU (DNA:RNA)
# RNA: B4 RNA with G28C, A29C
# DNA 1: CAATCTGAATTCCGGTCTCCC
# DNA 2: TGGTGGCTACGACGGGATT
# B27: UUACGGG (DNA:RNA)
# RNA: B1 RNA with C25U, A26U, G27A, U28C, C29G, U30G
# DNA 1: CAATCTGAATTCCGGTCTCCC
# DNA 2: TGGTGGCTACGACGGGATT
# B28: AUGCAUU (DNA:RNA)
# RNA: B1 RNA with C25A, A26U, U28C, C29A, G31U
# DNA 1: CAATCTGAATTCCGGTCTCCC
# DNA 2: TGGTGGCTACGACGGGATT
# B29: AUCAAGU (DNA:RNA)
# RNA: B4 RNA with G25A, G26U, A27C, G28A, C30G
# DNA 1: CAATCTGAATTCCGGTCTCCC
# DNA 2: TGGTGGCTACGACGGGATT
# B30: GUUGCAG (DNA:RNA)
# RNA: B1 RNA with C25G, A26U, G27U, U28G, U30A
# DNA 1: CAATCTGAATTCCGGTCTCCC
# DNA 2: TGGTGGCTACGACGGGATT
# B31: ACAUAAU (DNA:RNA)
# RNA: B4 RNA with G25A, G26C, G28U, C30A
# DNA 1: CAATCTGAATTCCGGTCTCCC
# DNA 2: TGGTGGCTACGACGGGATT
# Molecular target: T1, RBFOX1 RRM
# Experiment: EMSA; HiTS-Eq, 1 nM pool, 10 min; buffer printed only for the single-RNA assays: 10 mM Tris pH 7.5, 150 mM NaCl, 3.4 mM EDTA, 0.001% NP-40, 30 C
# Conditions: tags: His6 N-terminal (pET28a); label: 5' 32P
# Summary of the method: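 Purified RbFox RRM, wild type or mutant, was incubated for 10 min in 50 µL with 1 nM of a 5′-radiolabelled RNA pool carrying 7 randomized nucleotides, whose flanks were annealed to DNA oligonucleotides, over a series of increasing protein concentrations. Unbound RNA was resolved on 8% native PAGE, cut out, reverse-transcribed, barcoded by PCR and sequenced on an Illumina HiSeq 2500. Relative association constants were derived from changes in read counts for each RNA species versus the control reaction and normalised to the cognate motif.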
row,Binder,binding signal
1,B1,0.0134 KA relative to UGCAUGU
2,B2,0.00874 KA relative to UGCAUGU
3,B3,0.00558 KA relative to UGCAUGU
4,B4,0.0149 KA relative to UGCAUGU
5,B5,0.0162 KA relative to UGCAUGU
6,B6,0.015 KA relative to UGCAUGU
7,B7,0.0041 KA relative to UGCAUGU
8,B8,0.0132 KA relative to UGCAUGU
9,B9,0.00924 KA relative to UGCAUGU
10,B10,0.00478 KA relative to UGCAUGU
11,B11,0.0067 KA relative to UGCAUGU
12,B12,0.000628 KA relative to UGCAUGU
13,B13,0.00393 KA relative to UGCAUGU
14,B14,0.0133 KA relative to UGCAUGU
15,B15,0.0107 KA relative to UGCAUGU
16,B16,0.0149 KA relative to UGCAUGU

row,Binder,binding signal
1,B17,0.0153 KA relative to UGCAUGU
2,B18,0.0087 KA relative to UGCAUGU
3,B19,0.0125 KA relative to UGCAUGU
4,B20,0.00998 KA relative to UGCAUGU
5,B21,0.006 KA relative to UGCAUGU
6,B22,0.00434 KA relative to UGCAUGU
7,B23,0.0125 KA relative to UGCAUGU
8,B24,0.0027 KA relative to UGCAUGU
9,B25,0.0137 KA relative to UGCAUGU
10,B26,0.00658 KA relative to UGCAUGU
11,B27,0.00351 KA relative to UGCAUGU
12,B28,0.0122 KA relative to UGCAUGU
13,B29,0.00367 KA relative to UGCAUGU
14,B30,0.0214 KA relative to UGCAUGU
15,B31,0.000268 KA relative to UGCAUGU
